Some of the results follow. At the low end of the ranking, values are background and their order means little.
Test system: MYC (p64) + MAX (p21), in MYC:MAX
Assay: protein-binding microarray (anti-MAX antibody)
Conditions: PBM: 15 mM Tris-HCl pH 7.5, 100 mM KCl, 0.075% NP40, 7.5 mM beta-mercaptoethanol, 375 ng/ul BSA, 8 ng/ul poly(dA-dT):(dA-dT), 550 ng complex, 60 min, room …; high values mean tight binding; double strand, one strand shown; sequences stand for … in CCGGC…TTAATAGCTAAGATTACTATATCGACG

Sequence | binding signal (log2 normalized fluorescence)
TGACGATGGGTA | 0.154
TGAGGCGTGGCA | 0.399
TGACACAAAGTA | 0.134
TGACACGTGATA | 0.522
TGACTCGAGGTA | 0.385
TGACACTTAGTA | 0.231
TGAGAGCATGTA | 0.427
TGAAAAGTGGGA | -0.077
TGATGTACGGTA | 0.183
TGCCACTTGGTT | 0.173
TGTCACCGGGTA | 0.0662
TGAACTAGAGTA | -0.117
TGAAATGAGGTA | 0.424
AGGTTTCACCGG | 0.273
TGAACGCATGTA | 0.747
TGAAACGCTGTA | 0.131
TGAGTGTTCGTA | 0.0832
TGAGATGTTGTA | -0.226
TGACCTATTGTA | -0.00366
TGAAAGGACGTA | 0.041
TGAAGTCACGTA | 0.345
TGACGCTCTGTA | 0.0856
TGAGTTACTGTA | -0.0441
TGACAGCTAGTA | 0.0975
TGATTTAACGTA | -0.0239

Sequence | binding signal (log2 normalized fluorescence)
TGTGACGTGGTA | 0.414
TGAGGCTCGGTA | 0.0574
TGAGACCCCGTA | 0.0159
TGAGCTCTGGTA | -0.127
AGCGGGTCGCAC | -0.00303
TGAGGCAGTGTA | -0.129
TGACGTAATGTA | 0.0654
TGACGACGGGTA | 0.00772
TGACGAAGAATC | -0.158
AGACACGTGATC | 0.751
TGACATGGAGTA | 0.301
AGACACGTGGTC | 0.904
TGCCACGACGTA | 0.371
TGGCCCGTGGGA | 0.168
TGAGCACAAGTA | 0.273
TGACATATCGTA | 0.246
TGATCTATTGTA | -0.0842
TGATAAGACGTA | 0.0527
TGACACGCGATA | 0.642
TGACGCTTTGTA | 0.148
TGAATATCGGTA | -0.132
TGAGGCGGTGTA | -0.0108
TGAGGCGGCGTA | -0.318
TGATCGCATGTA | 0.469
TGATTCAACGTA | 0.0711

Sequence | binding signal (log2 normalized fluorescence)
TGACTCCAAGTA | 0.0835
AGACTCGTTGTA | 0.374
TCACCCATGGTA | 0.452
TGAAGTGTAGTA | -0.0212
TGAGTAGCAGTA | -0.19
TGAACGTGAGTA | 0.437
TGACTTACCGTA | 0.0191
TGACCCTGAGTA | 0.227
TGACATGGCGTA | 0.389
TGAAAGATGGTA | -0.0345
TGATCCAGGGTA | -0.107
TGAGACTCTGTA | -0.0312
TGAGTTTCTGTA | 0.0154
TGACAACGCGTA | 0.35
CGACCTGTGGTA | 0.234
TGATGAAACGTA | 0.0957
TGATGTCCAGTA | 0.242
TGCTACGTAGTA | 0.0721
TGACACATGGTA | 0.562
TGACACCTGATC | 0.308
TGAGAAACGGTA | 0.115
TGATTACGGGTA | -0.179
TGAGTTGCTGTA | 0.0091
TGATTTGTAGTA | -0.131
GGAGTAGTGGCT | 0.0721

Sequence | binding signal (log2 normalized fluorescence)
TGAACCCATGTA | 0.399
TTACACGTGGTG | 0.827
TGACTGACGGTA | -0.0692
TGATGACAAGTA | 0.0742
TGACACGCTGTT | 0.626
TGAGACGCCGTA | -0.0908
TGAAAGTATGTA | 0.158
TGACACGTCATA | 0.419
TGAAGTTCGGTA | -0.0247
TGATGCATAGTA | 0.136
TGAGCGGCGGTA | -0.224
TGACACGGAGTA | 0.316
TGAGTAGGTGTA | -0.181
TGACTAGTAGTA | -0.00827
AGCCACGTTGTA | 0.643
TGAGGATATGTA | -0.0677
TGAGGCAGAGTA | 0.068
TGAGTCGTAGTA | -0.161
TGAATCCTCGTA | 0.184
TGAGCGGGCGTA | 0.0392
TGATCACGGGTA | 0.304
TGAGTTACAGTA | -0.111
TGATTAGTGGTA | 0.0286
TGATCATTCGTA | -0.0402
TGACATGTGGTT | 0.359

Sequence | binding signal (log2 normalized fluorescence)
TGATTTTTGGTA | -0.196
GGCCACGTAGTA | 0.416
TGCCAGGTGGTG | 0.372
TGATCTAAGGTA | -0.0357
TGACACAAGGGA | 0.189
TGACTATCAGTA | -0.122
TGACCCAAGGTA | 0.121
TGAGACTCGGTA | -0.116
TGACTTGCTGTA | 0.307
TGATCCTGAGTA | -0.153
GAACATGTGGTA | 0.703
TGAGAGTTTGTA | -0.13
TGAAAGCAGGTA | 0.167
TGAGATATGGTA | -0.0464
ATTACTAGATGA | 0.103
TGACACGTGGAG | 0.923
TGAAAGCCGGTA | -0.229
TGAGGGATGGTA | 0.129
TGATATACCGTA | 0.0282
TGAACTCTAGTA | -0.0217
TGACTAAGAGTA | -0.0177
TGACGCGTCGCA | 0.259
TGATGGGAGGTA | 0.178
TGACACGATGTA | 0.599
TGAGCCAACGTA | 0.131

Sequence | binding signal (log2 normalized fluorescence)
TGGCAAGTGGTC | 0.192
TGAAGGGGGGTA | 0.855
TGATACTTTGTA | -0.0795
TGAAACAACGTA | 0.159
TGATTGGTCGTA | -0.12
TGACCATACGTA | 0.332
TGAGAGCGAGTA | 0.0964
TGACACGAGCTA | 0.396
TGATCACTGGTA | 0.112
TGAGACGACGTA | 0.0227
TGAATAGAGGTA | -0.106
TGAGAACCGGTA | 0.0466
TGATGGCTGGTA | 0.114
TGAAGGGGCGTA | 0.343
CGGGTCTTTCAT | -0.182
TGAGAAGACGTA | 0.105
TGACGCGAGGTA | 0.363
TGCCAAGTGGTA | 0.213
TGATAGGCTGTA | -0.106
TGAAGACGCGTA | 0.195
TGAACACATGTA | 0.713
TGAGGCAGCGTA | 0.0436
TGACTTGAAGTA | 0.0439
TGATTGACAGTA | -0.00641
GGACACGTTGTT | 0.768

Sequence | binding signal (log2 normalized fluorescence)
TGATCGTGGGTA | 0.255
GTATACGTGGTA | 0.202
TGAAAGCGAGTA | 0.0715
TGAGTTGAGGTA | 0.0977
TGAACGAGCGTA | 0.288
TGACAGGCAGTA | 0.278
TGACATGTAGTA | 0.279
CTTCACGTGGTA | 0.765
TGAGCTAGAGTA | -0.259
TGACTACGAGTA | 0.0572
TTACAGGTGTTA | 0.301
TGATACTTAGTA | -0.0867
TGATGCGAAGTA | 0.0196
TGACCTATGGTA | 0.108
TGAGGTGATGTA | 0.105
TGACGTTTGGTA | 0.243
TGATTCTAAGTA | -0.223
TGACAGGTGGTC | 0.417
TGATTAGTTGTA | -0.256
TGATAGTGTGTA | 0.25
TGACGCACCGTA | 0.332
TGATCGATAGTA | -0.0788
TGAGGCTTTGTA | -0.121
TGAAGGCCAGTA | 0.0251
TGAGTGCGCGTA | 0.0856

Sequence | binding signal (log2 normalized fluorescence)
TGCGACGTGGTA | 0.41
TGAACTTTGGTA | 0.0182
TTTCACTTGGTA | -0.0329
TGAGAAATTGTA | -0.213
TGATAGCTGGTA | -0.218
TGAGATGCTGTA | -0.0512
TCACATGTGGTA | 0.918
TGATACCGCGTA | 0.0701
TGATTAGTAGTA | -0.14
TGAAAAGACGTA | 0.0945
TGACACGTCATG | 0.5
TGACTTACTGTA | 0.0306
TGATTATGGGTA | 0.0425
CACAGGTATCAG | 0.231
TGAGTTTTTGTA | -0.111
TGATGCATCGTA | 0.281
TGAGAGGTGGTA | 0.18
TGAAAGCTAGTA | -0.271
TGAAAACACGTA | 0.278
TGAAAACGCGTA | 0.285
TGACTCTCGGTA | -0.112
TGAAAAATGGTA | 0.094
TGACCACTTGTA | 0.271
TCACACGTCGTA | 0.506
TGAAATACAGTA | -0.132

Sequence | binding signal (log2 normalized fluorescence)
TTACAAGTGTTA | 0.479
TGACTTCGGGTA | -0.00865
TGAATAGGTGTA | 0.0361
TGAGCCCTCGTA | 0.184
TGAAGTTCTGTA | -0.0118
GCCCACGTGGTA | 0.862
TGAATACTAGTA | 0.0521
TGATCCCAAGTA | -0.171
TGACACGTGATG | 0.851
TGAATCTCCGTA | 0.0299
TGACACGTGCTA | 0.869
TGACACGTGTAG | 0.834
TGAAGACCAGTA | 0.106
TCACACGTGGTT | 0.78
TGATGGGAAGTA | 0.0282
TGAGCGAAGGTA | -0.088
TGAACCGGGGTA | 0.0495
TGAGTAGGCGTA | -0.0976
TGACTAACTGTA | 0.15
TGAGCCAGAGTA | -0.182
TGAAGCGCTGTA | 0.215
TGACCCGTGGTA | 0.405
TGAATGGTTGTA | 0.349
TGAACCGGAGTA | -0.0317
TGAACTGGCGTA | -0.108

Sequence | binding signal (log2 normalized fluorescence)
TTACACGTAGCA | 0.256
TGAGACGTGGTC | 0.229
TGACATCTTGTA | 0.0964
TGAAAGCTGGTA | -0.00903
TGAAGTATCGTA | 0.0576
TGACGTGTGGTT | 0.466
TGAGTCATCGTA | -0.176
TGAGAACAGGTA | 0.122
TGAGCTGGAGTA | -0.183
TGAAGTTAGGTA | 0.0412
TGACGCGCGGTA | 0.422
TGACGAAAAGTA | -0.0542
TGAAGTTGAGTA | -0.0715
TGAGAGGGTGTA | 0.179
TGACGAGATGTA | 0.0764
TGAGCTGAAGTA | -0.119
TCACACGTAGCA | 0.45
TGAATCGCCGTA | -0.148
TGAGATGCAGTA | 0.00237
TGACCGGCCGTA | 0.0195
TGACGGCGTGTA | 0.379
TGACCCGCGGTA | 0.288
TTTAACGTGGTA | 0.523
TGACAAGAAGTA | 0.0925
TGGCACGTAGTA | 0.32

Sequence | binding signal (log2 normalized fluorescence)
TGAACTTGAGTA | -0.0729
TGACCCCCGGTA | 0.0361
TGATAACCAGTA | 0.0606
TGACACCACGTA | 0.523
TGAACGTACGTA | 0.0227
TGAATACGTGTA | 0.283
TGAGGGTGCGTA | 0.295
TGAATAGCCGTA | 0.0143
TGGTTCGTGGTA | 0.00818
TCCTATTCGCGA | -0.139
TGAGGTAGGGTA | -0.0271
TGACTCGCAGTA | 0.211
TGAAAGAAGGTA | -0.135
CCTAATTATCAA | -0.023
TGAATGCTAGTA | 0.11
TGAGTTGTCGTA | 0.0128
TGATAGGCCGTA | -0.228
TGATCGTACGTA | 0.133
TGACTGTGAGTA | 0.00564
TGAAGCTGAGTA | -0.26
TGATCCAGAGTA | -0.0845
TGTCAGGTGGTG | 0.467
TGACTACCGGTA | -0.00418
TGAAACTCCGTA | 0.0547
TGACACGACCTA | 0.237

Source: publication PMC5515408
